Laboratory results published in the supplement of paper PMC3334620.
Whole data set: some 33,000 sequences, median “E-score (-0.5 to 0.5)” near -0.04, cut for the highest 2% near 0.36. This is one part of the list.

Target: T1, Hmlalpha2 (UniProt P0CY09)
T1 sequence: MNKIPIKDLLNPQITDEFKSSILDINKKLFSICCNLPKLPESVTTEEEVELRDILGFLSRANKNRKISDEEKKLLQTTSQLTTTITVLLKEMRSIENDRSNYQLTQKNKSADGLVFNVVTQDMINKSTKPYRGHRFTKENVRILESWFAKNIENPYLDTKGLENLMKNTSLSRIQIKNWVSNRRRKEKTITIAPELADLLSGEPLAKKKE
Experiment: PBM E-score (8-mer binding enrichment) (E-score (-0.5 to 0.5)); higher = stronger / more preferred TF binding; most listed sequences are background and not binding sites
Conditions: protein concentration: 200 nM; construct: GST-full length
How it was run: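 PURExpress in vitro transcription/translation supplied GST-tagged yeast transcription factors, either full-length or DNA-binding domain. Applied at about 100-200 nM to universal all-10-mer Agilent arrays double-stranded by primer extension, the bound protein was detected with fluorescent anti-GST. E-scores, modified Wilcoxon-Mann-Whitney statistics, were given by the Universal PBM Analysis Suite to ungapped eight-base words pooled with their reverse complements after masliner normalisation.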

Sequence	PBM E-score
CGACGGAC	-0.102
GATGTGTA	0.38
CCATTGGA	-0.145
ACATGCGT	0.399
ACAATGTG	0.198
GTTTGAAA	0.0268
CGCTTACC	0.0166
GCCACATA	0.015
AAATGCGG	-0.197
CACCACCA	-0.188
CCTTAACG	0.125
CGAGGAAG	-0.216
ACCACGTA	0.254
GAAGGATC	-0.265
AGTGCGTA	0.202
GACAGTGC	-0.0346
ACTTCTCA	-0.0689
CAATACCG	-0.163
CGTGAGCA	-0.169
GTTTGGAA	0.0349
CGCTTCCA	-0.0766
ATTTTACC	0.188
CGCGACAC	0.0521
GGACAGAC	-0.112
ATAGGCGG	0.0365

Sequence	PBM E-score
CCTTTCAG	-0.171
CAAGTTAC	0.0968
GGAGCGCA	-0.338
CCTTATGA	-0.217
TCAGACCA	-0.122
GAACTAAA	0.128
AGCTTGAA	-0.0694
ATCATCTG	-0.0383
ACCATTTG	0.139
AAGATTTC	0.168
AACTATAT	0.199
AGTAGCTG	-0.0456
CGTGCTAG	0.124
GAGGCGTA	0.0657
CAGTCCCG	-0.196
CGTGTCAA	0.438
GCGATTAA	0.0172
ACGTGTGA	0.229
AACTCTTC	-0.0967
TAAACGTA	0.29
ATCGCGTA	0.368
ACTGTTCG	0.0673
ATAACGCC	0.134
AACCGGTG	-0.172
CTATCCCA	-0.145

Sequence	PBM E-score
ACCTATGG	-0.114
GAGAAACC	-0.0736
CCTCCTTA	-0.138
AGTAATTA	0.315
AGACGAGG	-0.331
CGGGAATC	-0.305
GCTGGGCC	-0.404
TATTCACA	0.297
CACTCGCG	-0.0838
TAGTTTGA	0.0225
CTCGTACA	0.167
CTGGTTAA	0.128
CCTCTTAG	-0.0666
ATGTGGAA	0.173
GGAATAAC	0.0659
CGGCCCAC	-0.155
GGCATCGA	-0.24
AATACACA	0.467
CCCTCCGC	-0.307
TAGCGCCA	-0.159
ACTTCAGA	-0.103
CGGTCAAC	0.147
GACAACCA	0.00963
CAACTGAG	0.0947
TAGGGATA	-0.135

Sequence	PBM E-score
GAAGCCGA	-0.259
AGACGCCG	-0.154
AGCGGCAG	-0.203
CCAATCAG	-0.323
CGTCACTA	-0.063
ACTAAGGC	-0.192
ACCTTTAG	-0.127
CCGTGTTA	0.44
ATGTACTA	0.397
ATAGAACA	0.164
CCTGTTAA	0.288
AGAGTGTA	0.0904
AAAGGTCT	-0.109
ATTTCCCG	-0.0394
ACGCGGAT	0.302
TAGAGGAA	-0.0993
AAAGCGCT	0.109
ATCACGCA	0.173
GTAGCGGA	-0.0459
CTGGTCGC	-0.127
CGTCGGGA	-0.116
ATTGGCAA	0.092
GGTTACCA	-0.0486
CGAGCAAC	0.0029
TCCATGAA	0.043

Sequence	PBM E-score
GACGCTGA	-0.00698
GCCCCCGC	-0.332
ACGGCCAT	-0.177
GCTTGACA	0.196
AACTGTGT	0.333
AGCAAGCA	-0.139
ATTGTTAA	0.269
CACCGCTA	-0.0146
CTGTTAAG	0.255
TCACGTAA	0.393
GTCGATTA	0.199
CGGCCAAA	0.0165
ACTTATTC	-0.00521
ACCCGGTC	-0.31
AAGCTTCG	-0.113
AAGTTGAT	0.0578
GAGGGTGC	-0.292
CCGGCTTC	-0.291
AGTGTCTG	-0.0202
ACTGATGC	-0.255
CCTCTCTC	-0.327
CATAATCA	0.192
TCGTGCAA	0.278
CGCATGAC	-0.0353
CTGGCCCA	-0.273

Sequence	PBM E-score
AGGTGTCG	-0.248
CATCAGGA	-0.0998
AGCCGCTA	-0.246
AGACACCC	0.0364
AATCAAGC	-0.063
CAACTTAC	0.145
AATTAATA	0.329
ATCACGTG	0.172
ATAATATA	0.285
GAGTGCGC	-0.205
CGCTCCAG	0.0252
ATATGATA	0.252
GGGAGGTA	-0.194
AAATTCCA	0.223
GCACGGCA	-0.108
TCAGAGCA	-0.283
GACTTAAC	0.103
ACTCAAAT	0.0409
ACAACAAC	0.316
ACGCTGTG	0.312
GGCGCTAA	-0.219
GACTCCGC	-0.0817
CCTCTCAG	-0.259
CTTTGCAA	-0.0128
ACCCGTTG	0.00752

Sequence	PBM E-score
ACCGGAAC	-0.233
AGACGTTG	-0.0957
AGTAGTTC	0.0977
AGGGTTGC	-0.134
CACAGGAC	-0.022
CAAGCGCC	-0.207
AAATCGAT	0.0888
ACTTTAGG	0.0276
ACCTAGAG	-0.0756
GTCGGGCA	-0.152
CCAGCCAC	-0.105
CCCCGTAA	-0.0104
ATGAAACG	-0.0624
GAGCCTAC	-0.154
ATTATTGA	0.0979
GAAAAGTC	-0.162
AAGAGAGG	-0.2
TACATGGA	0.429
AAATGTTG	0.0925
AGAATGCT	0.0411
ATAATTCC	0.0173
GTCCGGGA	-0.058
ACCTACCC	-0.176
CCAATATC	-0.316
ATCTCACA	0.0174

Sequence	PBM E-score
TGCGAAAA	0.261
CCTCACGA	-0.276
AGCAAAGC	-0.102
TAACATTA	0.331
CACTTCGG	-0.165
GGTTCTCA	-0.0328
ATTATATG	0.23
AGTGGCAG	-0.28
CCCCGTAG	-0.237
CTCAATGA	-0.0147
TAGGACCA	-0.0947
CGTGCGAC	0.0281
CATCCAAA	0.0919
AAGAAAGA	-0.0528
GGTGCCGA	-0.0679
CTAGAAAC	-0.0507
TGATCGCA	-0.0971
ACGGTCGG	-0.0798
AGCTCTCG	-0.158
ATCTGACA	0.00704
CCATGTAG	0.416
AATGCCCT	-0.233
CGTATCTA	0.00186
CAGGTAAC	0.0879
ACAGAAAC	0.196

Sequence	PBM E-score
CGATATCG	0.157
CCCTCAAC	-0.124
AGATGAGG	-0.29
GAAACCTC	-0.176
AGGAGTGC	-0.232
CCTCTCCG	-0.305
AGTGACAA	0.0251
AGTAGGCA	-0.0234
TCACGACA	0.116
ACGACTCG	-0.00304
AAGCCATT	0.0732
AACTATTG	0.145
TTACGAAA	0.243
AGTAACCC	-0.0544
CCCAAAGC	-0.217
ATAGCTTC	-0.139
GATACTAC	0.102
AGGAGGCC	-0.323
CTCGGGTC	-0.158
GAATATAA	-0.00557
CGGTAATA	-0.00682
ACGTAGCA	0.0657
CGCCTTCC	-0.267
CGACGACC	-0.298
AAGGTTAA	0.0903

Sequence	PBM E-score
ATTCCAAC	0.072
GCCCGGCC	-0.295
GGCGGATA	-0.0488
AAACATTC	0.133
AGCCGGAA	-0.0614
CGTGCGTA	0.28
GCCAACCA	-0.308
AGATTAGG	-0.124
CGCGCTAA	0.125
GAATGTAA	0.372
CGAGCACA	0.0673
AGCCTTTG	-0.248
ACAGCCGA	-0.099
AACGGAAT	0.084
CTAAGATC	-0.0578
AGCGTTTC	-0.017
CCCAATAG	-0.109
GCGTCCGA	-0.0617
GGTAGGTA	0.0354
ATCCTGTG	-0.00153
CCAGTCGG	-0.257
GATAGACA	0.0354
AATAATTA	0.288
ATGGGCGG	-0.155
ATTAGTAC	0.162

Sequence	PBM E-score
AAGTATGG	-0.0254
CATTAGCA	0.176
TGACCTAA	0.0337
CTTTCCGC	-0.0913
AGGTGACT	0.0246
CCACATTC	-0.185
GCAGATCC	0.0163
AGGGGGCC	-0.278
GTCCATCA	-0.203
AGGTCCCG	-0.144
GTAAGGCA	0.0168
CACGGCTG	-0.00299
CCCCCGGC	-0.235
ATATGGAG	-0.0168
GATCCCGA	-0.245
CTGGGAGA	-0.262
CAGCCCCC	-0.342
AGCTGGGG	-0.288
GTACCGAA	0.0584
GGGATCGA	-0.186
CGCACCAA	-0.0797
ACGAATTC	0.011
ACCGTACC	-0.255
AAAAACAA	0.228
CGTCCTCA	-0.172

Sequence	PBM E-score
GGCTGAGA	-0.248
ATGCAGAG	-0.0802
ATGGCGAA	-0.0009
GACAACTC	0.0205
ACCCCCTC	-0.173
CCATGGTC	-0.232
CCAGTTCA	-0.0858
GAGGATAC	0.0495
CCTCAGTA	-0.236
AATCATTA	0.107
CAGGTGGC	-0.237
ATAGTTGC	0.175
ACCAGCCG	-0.251
ACTTGAAT	0.0654
CGACCTCC	-0.161
TACAGAAA	0.163
CGTAGTCA	0.0306
ATAAGGCG	-0.00126
GGAGGAAC	-0.0482
CGGTCAAA	0.031
AGCTCAAA	0.106
CGACGTGA	0.121
AGGCTTGA	-0.123
ATCTCAAG	-0.0581
CAAGACTC	-0.133

Sequence	PBM E-score
CATCGCGA	0.151
CGGCACCC	-0.246
CCGGTCAA	0.0221
AAAGGGGT	-0.097
CCTACTTC	0.0165
AACAACGG	0.138
ATATACAC	0.422
CCGCTCAA	-0.209
AGACACTG	-0.0871
ATCAGCGC	-0.123
GCCTCCGA	-0.178
CTGCATCA	0.0148
AGGGGAAG	-0.151
CCTGTGTC	0.0583
CGTAGTAC	0.144
CTAAATAG	-0.0422
GATCGGGA	-0.302
AGTCAATG	-0.105
AGTTGGGC	-0.232
GGTTTTTA	0.27
GACCGAAA	-0.0454
ACCGTAAG	-0.0808
CCGCGGGA	-0.247
CAAAAGTA	0.141
AAGTCTCG	-0.145

Sequence	PBM E-score
ATGGGCTA	0.0703
CCGGAGGA	-0.327
ACTAACTA	-0.13
TCTTTTAA	0.183
CTCTCCAA	-0.0551
ATGGCACA	-0.0246
CCGTTGAG	-0.146
TCATGCCA	0.0681
CTATGGCA	-0.21
AGGCGGTG	-0.059
CAGCCCTC	-0.176
CCTCTGCA	-0.104
ACTAGCCG	-0.139
ACACGGCC	0.312
CCAACCAA	-0.201
CGCTGAGC	-0.0449
CCTACGAC	-0.178
TCGTAAAA	0.237
CGATTATC	-0.0707
